Assay results from patent US20080075796A1, “Compositions and Methods for Controlling Insects” (TyraTech, Inc., priority 2003, published 2008).

Biological target: T1, tyramine receptor (TyrR) (Drosophila melanogaster, UniProt P22270)
T1 sequence (P22270 27-601): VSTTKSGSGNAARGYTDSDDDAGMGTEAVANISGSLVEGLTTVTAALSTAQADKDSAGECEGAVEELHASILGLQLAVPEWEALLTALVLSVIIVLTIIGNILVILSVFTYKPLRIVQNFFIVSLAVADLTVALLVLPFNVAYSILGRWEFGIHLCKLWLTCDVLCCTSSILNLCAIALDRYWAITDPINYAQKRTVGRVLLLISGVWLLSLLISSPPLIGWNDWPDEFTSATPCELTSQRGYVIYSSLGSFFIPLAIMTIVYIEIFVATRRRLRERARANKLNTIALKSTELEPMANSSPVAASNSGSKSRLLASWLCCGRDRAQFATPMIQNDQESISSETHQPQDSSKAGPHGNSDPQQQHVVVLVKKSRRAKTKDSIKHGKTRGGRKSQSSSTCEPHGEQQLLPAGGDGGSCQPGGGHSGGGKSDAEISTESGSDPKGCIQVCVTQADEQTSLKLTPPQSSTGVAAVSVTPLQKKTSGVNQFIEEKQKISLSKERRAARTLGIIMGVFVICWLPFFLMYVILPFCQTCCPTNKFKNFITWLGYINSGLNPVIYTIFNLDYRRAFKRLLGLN
Conditions: displacement of about 2 nM ^3H-tyramine

pEC50 (EC50 (concentration at which binding is inhibited by 50%)): 5.13
pKi (Ki): 5.54
Structure (SMILES): NCC(O)c1ccc(O)cc1 (centres unmarked) [Octopamine (OA), Octopamine]

pEC50, pKi: −log10 of the molar value.
